B1: VG9B424 (antibody, human IgG1, kappa)
heavy: EVQLVESGGGLVKPGGSLRLSCSASGFTFSNYDMNWVRQAPGKGLEWVSSISSSSSYIYYADSVKGRFTISRDNAKNSLYLQMNSLRAEDTAVYHCARDVGVTTDYYYYGMDVWGQGTMVTVSS[human IgG1 constant region omitted here]
light: ETTLTQSPGTLSLSPGDRATLSCRASQSVASSYLAWYQQKPGQSPRLLIYGASSRATGIPDRFSGSGSGTDFTLTISRLEPEDFAVYYCQQYGSSPPYTFGQGTKLEIKRTVAAPSVFIFPPSDEQLKSGTASVVCLLNNFYPREAKVQWKVDNALQSGNSQESVTEQDSKDSTYSLSSTLTLSKADYEKHKVYACEVTHQGLSSPVTKSFNRGEC
B2: VG9B427 (antibody, human IgG1, kappa)
heavy: QVQLVESGGGLVKPGGSLRLSCSASGFTFSNYDMNWVRQAPGKGLEWVSSISSSSSYIYYADSVKGRFTISRDNAKNSLYLQMNSLRAEDTAVYHCARDVGVTTDYYYYGMDVWGQGTTVTVSS[human IgG1 constant region omitted here]
light: EIVMTQSPGTLSLSPGDRATLSCRASQSVASSYLAWYQQKPGQSPRLLIYGASSRATGIPDRFSGSGSGTDFTLTISRLEPEDFAVYYCQQYGSSPPYTFGQGTRLEIKRTVAAPSVFIFPPSDEQLKSGTASVVCLLNNFYPREAKVQWKVDNALQSGNSQESVTEQDSKDSTYSLSSTLTLSKADYEKHKVYACEVTHQGLSSPVTKSFNRGEC
B3: VG9B425 (antibody, human IgG1, kappa)
heavy: EVQLLESGGGLVKPGGSLRLSCSASGFTFSNYDMNWVRQAPGKGLEWVSSISSSSSYIYYADSVKGRFTISRDNAKNSLYLQMNSLRAEDTAVYHCARDVGVTTDYYYYGMDVWGQGTMVTVSS[human IgG1 constant region omitted here]
light: ETTLTQSPGTLSLSPGDRATLSCRASQSVASSYLAWYQQKPGQSPRLLIYGASSRATGIPDRFSGSGSGTDFTLTISRLEPEDFAVYYCQQYGSSPPYTFGQGTKVEIKRTVAAPSVFIFPPSDEQLKSGTASVVCLLNNFYPREAKVQWKVDNALQSGNSQESVTEQDSKDSTYSLSSTLTLSKADYEKHKVYACEVTHQGLSSPVTKSFNRGEC
B4: VG9B111 (antibody, human IgG1, kappa)
heavy: QVQLLESGGGLVKPGGSLRLSCAASGFTFSTYSVNWVRQAPGKGLEWVSSISSDSSYIFYADSMKGRFTISRDNAKNSLYLHMNSLRAEDTAVYYCARDSVTGPFDYWGQGTLVTVSS[human IgG1 constant region omitted here]
light: DIVMTQSPSSLSASVGDRVTITCQASQDISHYLNWYQQKPGKAPKLLIYDSYILETGVTSRFSGSGSGTDFTFTINSLQPEDIAIYYCQQYDNLPYTFGQGTKVEIKRTVAAPSVFIFPPSDEQLKSGTASVVCLLNNFYPREAKVQWKVDNALQSGNSQESVTEQDSKDSTYSLSSTLTLSKADYEKHKVYACEVTHQGLSSPVTKSFNRGEC
B5: VG9B639 (antibody, human IgG1, kappa)
heavy: QVQLVQSGGGLVKPGGSLRLSCAASGFTFTTYRMNWVRQAPGKGLEWVSSISSSSIYIHSADSVKGRFTISRDNAKNSLYLQMNSLRAEDSAIYYCARERVYTVSFDYWGQGTLVTVSS[human IgG1 constant region omitted here]
light: DIQMTQSPSSLSASVGDRVTITCQASQDISHYLNWYQQKPGKAPKLLIYDSYILETGVTSRFSGSGSGTDFTFTINSLQPEDIAIYYCQQYDNLPYTFGQGTKVEIKRTVAAPSVFIFPPSDEQLKSGTASVVCLLNNFYPREAKVQWKVDNALQSGNSQESVTEQDSKDSTYSLSSTLTLSKADYEKHKVYACEVTHQGLSSPVTKSFNRGEC
B6: VG9B161 (antibody, human IgG1, lambda)
heavy: QVQLQESGPGLVKPSETLSLTCTVSGGSISSYFWSWIRQPPGKGLEWIGYIFYSGSTNYNPSLKSRVTILVDTSKNHFSLKLSSVTAADTAVYYCARVGRWELRGAFDIWGQGTMVTVSS[human IgG1 constant region omitted here]
light: QPVLTQSSSASGTPGQRVTISCSGSSSNIGSNTVNWYQQFPGTAPKLLIYSNNQRPSGVPDRFSGSKSGTSASLAISGLQSEDEAEYYCAAWDDSLNSPGVFGGGTKLTVLGQPKAAPSVTLFPPSSEELQANKATLVCLISDFYPGAVTVAWKADSSPVKAGVETTTPSKQSNNKYAASSYLSLTPEQWKSHRSYSCQVTHEGSTVEKTVAPTECS
B7: VG9B156 (antibody, human IgG1, lambda)
heavy: QVQLQESGPGLMKPSETLSLTCTVSNGSISGYFWNWIRQPPGKGLEWIGYIFYSGSTNYNPSLKSRVTISVDTSKNLVSLKLNSVTAADTAVYFCAKLGKWELRTAFDIWGQGTMVTVSS[human IgG1 constant region omitted here]
light: QLVLTQPPSASGTPGQRVTISCSGSTSNIGSDTVNWYQQLPGTAPKLLIYSNNQRPSGVPDRFSGSKSGTSASLAISGLQSEDETDYYCAAWDDSLNGPVFGGGTKVTVLGQPKAAPSVTLFPPSSEELQANKATLVCLISDFYPGAVTVAWKADSSPVKAGVETTTPSKQSNNKYAASSYLSLTPEQWKSHRSYSCQVTHEGSTVEKTVAPTECS
B8: VG9B182 (antibody, human IgG1, lambda)
heavy: QVQLVESGPGLVKPSETLSLTCTVSGDSINNHFWSWIRQPPGKGLEWIGFVFYNGNTNYNPSLKSRVTISIDTSKSQFSLKLTSVTAADTAVYYCARVGRWVLRTAFDIWGQGTMVTVSS[human IgG1 constant region omitted here]
light: QSALTQPPSASGTPGQRVTISCSGSSSNIGSNTVNWYQQLPGTAPKLLIYSNNQRPSGVPARFSGSKSGTSASLAISGLQSEDEADYYCAAWDDSLNGPGVFGGGTKLTVLGQPKAAPSVTLFPPSSEELQANKATLVCLISDFYPGAVTVAWKADSSPVKAGVETTTPSKQSNNKYAASSYLSLTPEQWKSHRSYSCQVTHEGSTVEKTVAPTECS
B9: VG9B173 (antibody, human IgG1, lambda)
heavy: QVQLQESGPGLVKPSETLSLTCTVSGGSINNYFWSWIRQPPGKGLEWIGYIYYSGSTNYNPSLKSRVTISVVTSMNQFSLKLSSVTAADTAVYYCAREGKWELRSAFDIWGQGTMVTVSS[human IgG1 constant region omitted here]
light: QSVLTQPPSASGTPGQRVTISCSGSSSNIESNTVNWYQQLPRTAPKLLIYSNNQRPSGVPDRFSGSKSGTSASLAISGLQSEDEADYYCTAWDDSLNGPVFGGGTKVTVLGQPKAAPSVTLFPPSSEELQANKATLVCLISDFYPGAVTVAWKADSSPVKAGVETTTPSKQSNNKYAASSYLSLTPEQWKSHRSYSCQVTHEGSTVEKTVAPTECS
B10: VG9B186 (antibody, human IgG1, lambda)
heavy: QVTLRESGPVLVKPTETLTLTCTVSGFSLTNIRMSVSWIRQPPGEALEWLAHIFSNDEKSYNSSLKSRLTISRDTSKSQVVLTLTNVDPVDTATYYCARMRLPYGMDVWGQGTMVTVSS[human IgG1 constant region omitted here]
light: QSVLTQPPSASGTPGQRVTISCSGSTSNIGSNTVNWYQQLPGTAPKLLIYSNNQRPSGVPDRFSGSKSGTSASLAISGLQSEDEADFYCAAWDDSLNGPVFGGGTKVTVLGQPKAAPSVTLFPPSSEELQANKATLVCLISDFYPGAVTVAWKADSSPVKAGVETTTPSKQSNNKYAASSYLSLTPEQWKSHRSYSCQVTHEGSTVEKTVAPTECS
B11: VG9B65 (antibody, human IgG1, kappa)
heavy: QVQLVQSGAEVKKPGSSVKVSCKASGGTFNIYAINWVRQAPGQGLEWMGGIIPFFGTANYAQKFQDRVTITADKSTNTAYMELSSLRSEDTAVFYCARGGDSGYDWGFDYWGQGTLVTVSS[human IgG1 constant region omitted here]
light: DIVMTQTPLSSPVTLGQPASISCRSSQSLVHSDGNTYLSWLQQRPGQPPRLLIYQISNRFSGVPDRFSGSGAGTDFTLNISRVEADDVGVYYCMQATQFPLTFGGGTKVEIKRTVAAPSVFIFPPSDEQLKSGTASVVCLLNNFYPREAKVQWKVDNALQSGNSQESVTEQDSKDSTYSLSSTLTLSKADYEKHKVYACEVTHQGLSSPVTKSFNRGEC

Target: T cell receptor (TCR) Vγ9 (TRGV9) on Vγ9+ T cells in PBMCs (human), Q99603
Experiment: cell-based or functional assay

Sequence of T cell receptor (TCR) Vγ9 (TRGV9) on Vγ9+ T cells in PBMCs (human), Q99603 (Q99603 21-122): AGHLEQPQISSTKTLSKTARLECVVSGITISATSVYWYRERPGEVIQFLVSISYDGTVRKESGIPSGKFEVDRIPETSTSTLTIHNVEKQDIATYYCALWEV

First: B1
Second: B2
The CD25+ (Vg9+ cells), flow staining of the first is lower: 36.7% for the first, 50.6% for the second.

B3 was tested, and the CD25+ (Vg9+ cells), flow staining was 39.3%.

Going from B1 to B2, the CD71+ (Vg9+ cells), flow staining rises from 98.8% to 99.1%.

For B3, the CD71+ (Vg9+ cells), flow staining was 98.6%.

Going from B1 to B2, the Granzyme B (Luminex, supernatant) rises from 3960 to 4680.

In the case of B3, the Granzyme B (Luminex, supernatant) is reported as 3740.

First: B1
Second: B2
The IFNγ (Luminex, supernatant) of the first is lower: 1400 for the first, 2490 for the second.

With B3 the IFNγ (Luminex, supernatant) was 1360.

Compared with B1, B2 is lower in IL6 (Luminex, supernatant): 931 for the first, 340 for the second.

In the case of B3, the IL6 (Luminex, supernatant) is reported as 612.

Compared with B1, B2 is higher in TNFα (Luminex, supernatant): 174 for the first, 220 for the second.

For B3, the TNFα (Luminex, supernatant) was 127.

Going from B1 to B2, the Vg9 T cell %, flow staining rises from 12.1% to 13.6%.

B3 showed a Vg9 T cell %, flow staining of 15.6%.

Target: TCR Vδ2 (TRDV2) (human), A0JD36
Experiment: cell-based or functional assay

Sequence of TCR Vδ2 (TRDV2) (human), A0JD36 (A0JD36 20-115, stated change not applied): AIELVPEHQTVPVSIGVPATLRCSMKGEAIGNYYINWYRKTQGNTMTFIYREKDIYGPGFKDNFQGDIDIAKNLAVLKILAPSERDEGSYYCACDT

First: B4
Second: B5
The CD25+ (Vg9+ cells), flow staining of the first is lower: 27.8% for the first, 37.8% for the second.

Going from B6 to B7, the CD25+ (Vg9+ cells), flow staining falls from 31.3% to 27.5%.

First: B8
Second: B9
The CD25+ (Vg9+ cells), flow staining of the first is higher: 37.9% for the first, 22.9% for the second.

With B10 the CD25+ (Vg9+ cells), flow staining was 13.3%.

Going from B4 to B5, the CD71+ (Vg9+ cells), flow staining rises from 84.4% to 94.7%.

Going from B6 to B7, the CD71+ (Vg9+ cells), flow staining falls from 94.5% to 93.7%.

Compared with B8, B9 is lower in CD71+ (Vg9+ cells), flow staining: 91% for the first, 90.4% for the second.

For B10, the CD71+ (Vg9+ cells), flow staining was 78.3%.

Compared with B4, B5 is higher in Granzyme B (Luminex, supernatant): 98 for the first, 4290 for the second.

Compared with B6, B7 is lower in Granzyme B (Luminex, supernatant): 1670 for the first, 493 for the second.

Going from B4 to B5, the IFNγ (Luminex, supernatant) rises from 44 to 1400.

Going from B6 to B7, the IFNγ (Luminex, supernatant) falls from 620 to 44.

Going from B4 to B5, the IL6 (Luminex, supernatant) rises from 32 to 755.

Going from B6 to B7, the IL6 (Luminex, supernatant) falls from 286 to 37.

First: B4
Second: B5
The TNFα (Luminex, supernatant) of the first is lower: 42 for the first, 6080 for the second.

Going from B6 to B7, the TNFα (Luminex, supernatant) falls from 1280 to 14.

Compared with B4, B5 is lower in Vg9 T cell %, flow staining: 8.8% for the first, 4.3% for the second.

Going from B6 to B7, the Vg9 T cell %, flow staining rises from 5.4% to 6.4%.

Going from B8 to B9, the Vg9 T cell %, flow staining rises from 2.5% to 5.1%.

With B10 the Vg9 T cell %, flow staining was 3.4%.

First: B8
Second: B9
The Granzyme B, Luninex (supernatant) of the first is higher: 2180 for the first, 766 for the second.

Work on B10 yielded a Granzyme B, Luninex (supernatant) of 327.

First: B8
Second: B9
The IFNγ, Luninex (supernatant) of the first is higher: 938 for the first, 83 for the second.

With B10 the IFNγ, Luninex (supernatant) was 68.

First: B8
Second: B9
The IL6, Luninex (supernatant) of the first is higher: 209 for the first, 104 for the second.

Binder B10 has an IL6, Luninex (supernatant) of 56.

Going from B8 to B9, the TNFα, Luninex (supernatant) falls from 1040 to 17.

Binder B10 has a TNFα, Luninex (supernatant) of 429.

Target: TCR Vδ2 (TRDV2) on γδ T cells in PBMCs (human), A0JD36
Experiment: cell-based or functional assay

Sequence of TCR Vδ2 (TRDV2) on γδ T cells in PBMCs (human), A0JD36 (A0JD36 20-115, stated change not applied): as above

Binder B11 has a CD25+ (Vg9+ cells), flow staining of 24.6%.

B11 was tested, and the CD71+ (Vg9+ cells), flow staining was 96.4%.

In the case of B11, the Granzyme B (Luminex, supernatant) is reported as 1040.

B11 was tested, and the IFNγ (Luminex, supernatant) was 179.

With B11 the IL6 (Luminex, supernatant) was 190.

For B11, the TNFα (Luminex, supernatant) was 42.

Binder B11 has a Vg9 T cell %, flow staining of 7.2%.

Reference: patent publication US20220125947A1
